Experimental data published in article PMC8041803.
Results are given in words; binding and its absence hold for the method and conditions named. In cells and extracts the contact can be indirect. Some results given as binding are weak or reduced against the parent protein; the word gives no strength. For some assays here: Tags and fused reporters may be left off the sequences shown. Blank lines part the entries; values can stand above or below the molecule they belong to.

Amino acid sequences for entries named in this document (tags omitted).
UniProt Q13426: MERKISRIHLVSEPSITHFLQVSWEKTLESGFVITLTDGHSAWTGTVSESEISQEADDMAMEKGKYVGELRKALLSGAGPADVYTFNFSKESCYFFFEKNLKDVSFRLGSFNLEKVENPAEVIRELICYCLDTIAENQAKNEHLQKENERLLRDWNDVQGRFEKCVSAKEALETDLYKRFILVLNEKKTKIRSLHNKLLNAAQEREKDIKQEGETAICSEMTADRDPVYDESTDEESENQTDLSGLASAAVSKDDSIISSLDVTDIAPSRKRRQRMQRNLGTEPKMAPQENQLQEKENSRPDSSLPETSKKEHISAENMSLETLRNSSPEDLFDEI
UniProt Q9H9Q4: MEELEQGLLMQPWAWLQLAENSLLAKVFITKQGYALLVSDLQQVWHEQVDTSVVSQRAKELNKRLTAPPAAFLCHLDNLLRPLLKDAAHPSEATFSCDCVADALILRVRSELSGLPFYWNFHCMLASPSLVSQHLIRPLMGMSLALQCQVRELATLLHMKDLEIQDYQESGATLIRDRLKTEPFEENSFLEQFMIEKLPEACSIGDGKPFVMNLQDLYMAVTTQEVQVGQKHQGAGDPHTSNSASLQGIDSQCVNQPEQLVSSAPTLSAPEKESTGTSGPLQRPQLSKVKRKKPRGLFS
UniProt P78527: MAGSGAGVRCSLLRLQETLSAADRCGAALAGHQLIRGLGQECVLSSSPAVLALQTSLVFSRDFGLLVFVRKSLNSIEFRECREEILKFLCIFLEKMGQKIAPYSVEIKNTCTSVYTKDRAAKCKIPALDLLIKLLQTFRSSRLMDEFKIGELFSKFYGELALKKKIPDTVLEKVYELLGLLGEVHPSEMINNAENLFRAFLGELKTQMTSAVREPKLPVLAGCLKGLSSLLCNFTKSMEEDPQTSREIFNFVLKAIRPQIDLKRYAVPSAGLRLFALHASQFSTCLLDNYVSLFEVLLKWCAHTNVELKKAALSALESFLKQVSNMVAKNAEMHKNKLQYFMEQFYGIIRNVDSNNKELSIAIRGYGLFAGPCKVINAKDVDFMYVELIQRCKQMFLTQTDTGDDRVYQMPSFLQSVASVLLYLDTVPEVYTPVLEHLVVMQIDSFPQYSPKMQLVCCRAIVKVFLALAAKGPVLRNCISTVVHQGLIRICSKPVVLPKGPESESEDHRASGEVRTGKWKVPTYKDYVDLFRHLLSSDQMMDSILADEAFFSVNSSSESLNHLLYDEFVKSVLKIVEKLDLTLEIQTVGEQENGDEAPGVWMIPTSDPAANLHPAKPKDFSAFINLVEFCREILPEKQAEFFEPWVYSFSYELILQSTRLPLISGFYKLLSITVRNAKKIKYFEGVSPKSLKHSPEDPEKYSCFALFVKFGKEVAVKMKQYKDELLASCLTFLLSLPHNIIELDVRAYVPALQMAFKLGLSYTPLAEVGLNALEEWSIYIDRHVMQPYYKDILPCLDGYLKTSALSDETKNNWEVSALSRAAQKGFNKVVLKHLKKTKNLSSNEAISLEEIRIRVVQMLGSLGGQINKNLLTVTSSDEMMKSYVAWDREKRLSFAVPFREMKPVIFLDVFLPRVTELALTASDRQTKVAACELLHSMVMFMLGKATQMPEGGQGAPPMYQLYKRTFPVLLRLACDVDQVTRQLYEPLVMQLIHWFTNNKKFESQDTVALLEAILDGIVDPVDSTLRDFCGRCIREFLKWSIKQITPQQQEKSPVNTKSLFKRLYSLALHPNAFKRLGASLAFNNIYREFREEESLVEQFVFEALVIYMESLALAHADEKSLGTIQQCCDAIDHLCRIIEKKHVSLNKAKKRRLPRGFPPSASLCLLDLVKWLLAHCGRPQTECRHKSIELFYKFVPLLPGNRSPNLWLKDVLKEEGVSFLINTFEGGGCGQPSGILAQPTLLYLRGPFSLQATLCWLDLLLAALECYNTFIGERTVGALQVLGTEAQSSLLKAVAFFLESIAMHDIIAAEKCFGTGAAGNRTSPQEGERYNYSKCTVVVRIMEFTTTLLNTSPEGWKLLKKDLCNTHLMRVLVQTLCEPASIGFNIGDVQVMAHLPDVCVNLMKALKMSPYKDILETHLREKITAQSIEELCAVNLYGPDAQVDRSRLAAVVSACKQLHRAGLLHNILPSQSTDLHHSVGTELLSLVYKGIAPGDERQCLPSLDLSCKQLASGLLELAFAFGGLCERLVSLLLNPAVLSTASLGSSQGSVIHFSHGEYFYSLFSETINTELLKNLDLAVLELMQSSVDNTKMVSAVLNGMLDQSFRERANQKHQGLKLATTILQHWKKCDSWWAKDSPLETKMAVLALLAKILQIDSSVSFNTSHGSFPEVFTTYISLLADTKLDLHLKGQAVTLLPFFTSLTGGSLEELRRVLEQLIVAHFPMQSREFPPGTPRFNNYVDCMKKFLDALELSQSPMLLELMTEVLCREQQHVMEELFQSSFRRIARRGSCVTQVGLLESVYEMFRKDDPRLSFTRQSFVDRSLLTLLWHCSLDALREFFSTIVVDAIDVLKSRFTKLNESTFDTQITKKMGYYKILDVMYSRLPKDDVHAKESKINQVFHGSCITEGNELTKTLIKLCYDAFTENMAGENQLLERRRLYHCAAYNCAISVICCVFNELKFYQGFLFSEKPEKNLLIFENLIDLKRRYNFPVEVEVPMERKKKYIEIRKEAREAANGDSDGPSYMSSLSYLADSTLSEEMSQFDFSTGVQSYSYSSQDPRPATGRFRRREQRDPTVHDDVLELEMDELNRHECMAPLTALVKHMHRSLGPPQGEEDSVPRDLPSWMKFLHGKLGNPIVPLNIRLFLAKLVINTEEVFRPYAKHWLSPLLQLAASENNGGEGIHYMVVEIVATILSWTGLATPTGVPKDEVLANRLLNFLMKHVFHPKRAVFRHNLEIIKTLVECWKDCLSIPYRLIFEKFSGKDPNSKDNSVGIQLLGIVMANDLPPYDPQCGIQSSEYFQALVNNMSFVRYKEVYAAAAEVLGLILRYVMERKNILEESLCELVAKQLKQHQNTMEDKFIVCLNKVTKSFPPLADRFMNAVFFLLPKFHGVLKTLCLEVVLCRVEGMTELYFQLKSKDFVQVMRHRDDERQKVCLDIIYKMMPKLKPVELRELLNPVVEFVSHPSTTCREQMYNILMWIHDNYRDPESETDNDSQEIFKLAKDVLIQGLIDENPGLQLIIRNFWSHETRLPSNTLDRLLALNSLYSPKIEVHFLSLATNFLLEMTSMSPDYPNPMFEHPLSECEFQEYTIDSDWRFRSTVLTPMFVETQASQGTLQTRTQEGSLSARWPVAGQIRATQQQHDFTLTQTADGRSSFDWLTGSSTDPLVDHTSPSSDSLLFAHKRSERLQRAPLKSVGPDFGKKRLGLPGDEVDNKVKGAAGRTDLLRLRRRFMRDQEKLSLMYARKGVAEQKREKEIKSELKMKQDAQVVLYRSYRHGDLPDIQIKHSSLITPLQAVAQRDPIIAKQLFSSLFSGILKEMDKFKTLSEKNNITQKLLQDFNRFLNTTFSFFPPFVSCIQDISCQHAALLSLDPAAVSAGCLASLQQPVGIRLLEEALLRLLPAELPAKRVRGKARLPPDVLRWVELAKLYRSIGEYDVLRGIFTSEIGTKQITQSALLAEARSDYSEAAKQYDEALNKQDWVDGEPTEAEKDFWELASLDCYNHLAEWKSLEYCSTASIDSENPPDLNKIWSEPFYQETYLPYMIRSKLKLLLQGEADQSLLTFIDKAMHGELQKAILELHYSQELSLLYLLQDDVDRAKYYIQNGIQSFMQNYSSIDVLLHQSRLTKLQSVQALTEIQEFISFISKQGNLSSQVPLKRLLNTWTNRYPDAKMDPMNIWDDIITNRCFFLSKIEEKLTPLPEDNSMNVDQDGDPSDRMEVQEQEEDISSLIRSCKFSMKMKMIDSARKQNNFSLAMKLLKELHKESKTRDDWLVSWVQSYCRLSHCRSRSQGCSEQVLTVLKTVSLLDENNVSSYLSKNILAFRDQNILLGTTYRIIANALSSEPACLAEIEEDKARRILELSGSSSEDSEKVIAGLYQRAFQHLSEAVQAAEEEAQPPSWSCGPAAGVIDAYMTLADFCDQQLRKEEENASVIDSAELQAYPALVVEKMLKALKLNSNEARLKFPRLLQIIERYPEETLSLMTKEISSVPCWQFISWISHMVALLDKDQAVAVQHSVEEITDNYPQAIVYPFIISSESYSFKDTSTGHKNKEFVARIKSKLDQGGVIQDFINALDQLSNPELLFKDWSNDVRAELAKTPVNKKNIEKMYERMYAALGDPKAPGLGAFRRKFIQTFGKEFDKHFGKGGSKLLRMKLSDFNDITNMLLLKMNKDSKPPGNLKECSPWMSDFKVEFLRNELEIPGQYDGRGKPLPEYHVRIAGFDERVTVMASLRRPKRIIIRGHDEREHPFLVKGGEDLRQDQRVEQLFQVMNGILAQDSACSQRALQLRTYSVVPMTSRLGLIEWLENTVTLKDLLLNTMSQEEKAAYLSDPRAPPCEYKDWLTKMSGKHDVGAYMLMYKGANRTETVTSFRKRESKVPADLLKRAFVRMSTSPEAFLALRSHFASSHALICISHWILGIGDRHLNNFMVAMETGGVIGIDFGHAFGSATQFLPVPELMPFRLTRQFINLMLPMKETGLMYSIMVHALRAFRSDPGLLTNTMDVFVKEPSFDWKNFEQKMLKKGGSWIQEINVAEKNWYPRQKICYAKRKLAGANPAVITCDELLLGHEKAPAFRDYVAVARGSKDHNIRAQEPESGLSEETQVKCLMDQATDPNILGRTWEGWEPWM

Key:
[1] = molecular target: T1, Flag-RIG-I (retinoic acid-inducible gene I, wild type) (UniProt O95786); assay: co-IP; HEK293T transfected with empty vector or Flag-RIG-I; lysate (NETN buffer) precipitated with anti-Flag agarose beads; endogenous partners blotted
T1 sequence: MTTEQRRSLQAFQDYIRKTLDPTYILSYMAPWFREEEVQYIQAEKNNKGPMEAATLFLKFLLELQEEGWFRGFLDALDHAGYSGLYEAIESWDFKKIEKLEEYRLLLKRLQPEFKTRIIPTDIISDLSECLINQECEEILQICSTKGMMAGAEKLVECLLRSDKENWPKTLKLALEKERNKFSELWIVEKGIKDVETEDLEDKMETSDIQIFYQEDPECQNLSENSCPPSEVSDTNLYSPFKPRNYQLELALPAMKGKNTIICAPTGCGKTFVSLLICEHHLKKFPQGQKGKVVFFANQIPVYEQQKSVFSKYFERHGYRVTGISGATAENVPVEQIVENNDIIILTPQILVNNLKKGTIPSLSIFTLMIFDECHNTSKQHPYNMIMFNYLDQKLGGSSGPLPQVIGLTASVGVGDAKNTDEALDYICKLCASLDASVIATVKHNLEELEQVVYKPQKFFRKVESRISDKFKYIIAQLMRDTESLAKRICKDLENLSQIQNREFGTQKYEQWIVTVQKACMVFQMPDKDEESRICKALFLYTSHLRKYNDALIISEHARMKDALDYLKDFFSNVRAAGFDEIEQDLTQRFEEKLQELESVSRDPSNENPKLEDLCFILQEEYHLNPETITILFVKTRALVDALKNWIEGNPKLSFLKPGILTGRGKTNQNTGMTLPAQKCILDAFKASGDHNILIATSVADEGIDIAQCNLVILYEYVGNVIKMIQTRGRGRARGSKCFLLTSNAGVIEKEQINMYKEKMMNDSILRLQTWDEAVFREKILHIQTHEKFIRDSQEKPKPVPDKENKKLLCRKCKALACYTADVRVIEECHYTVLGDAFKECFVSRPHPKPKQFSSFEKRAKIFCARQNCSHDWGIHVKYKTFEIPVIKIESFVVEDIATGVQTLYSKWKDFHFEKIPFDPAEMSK

[2] = molecular target: T1, Flag-RIG-I (retinoic acid-inducible gene I, wild type); assay: co-IP; HEK293T transfected with Flag-RIG-I constructs and GFP-XRCC4; lysates incubated with anti-Flag agarose beads; blot
[3] = molecular target: T1, Flag-RIG-I (retinoic acid-inducible gene I, wild type); assay: co-IP; legend not shown (Supplementary Fig. 2b, c); RIG-I wild type or RNA binding-deficient mutants, cells with or without IR
[4] = molecular target: T2, RIG-I (endogenous) (human (endogenous in A549)) (UniProt O95786); assay: co-IP
T2 sequence: T1 sequence

GFP-XRCC4 (wild type) = GFP-XRCC4 (wild type) (UniProt Q13426); assay: co-IP; HEK293T transfected with GFP-XRCC4 constructs and Flag-RIG-I; lysates incubated with anti-GFP agarose beads; blot
Flag-XRCC4 = Flag-XRCC4 (UniProt Q13426); assay: co-IP

binding [1]: no binding
Molecule: XLF (from UniProt Q9H9Q4 1-299)

binding [2]: binds
Molecule: GFP-XRCC4 (wild type) (from UniProt Q13426 1-336)

binding [1]: no binding
Molecule: DNA-PK (from UniProt P78527 1-4128)

binding [3]: binds
binding [4]: binds
binding [1]: binds
Molecule: XRCC4 (endogenous) (from UniProt Q13426 1-336)

binding (GFP-XRCC4 (wild type)): binds
B1: Flag-RIG-I (retinoic acid-inducible gene I, wild type) (protein, UniProt O95786 1-925)
chain: T1 sequence

binding (Flag-XRCC4): binds
B2: GFP-RIG-I (protein, UniProt O95786 1-925)
chain: T1 sequence
